± gives the standard deviation of the averaged measurements. This is one part of the list.
System: PfAP2-G AP2 domain (GST-tagged)
Assay: gcPBM binding intensity (ln(normalized median fluorescence intensity)); higher = stronger DNA binding
Summary of the method: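 Alexa488 anti-GST antibody, scanned at 488 nm, detected GST-tagged P. falciparum DNA-binding domains that had been expressed in E. coli and incubated for 1 h on an Agilent 4 × 180k array. The array carried primer-extended double-stranded 36-bp intergenic genomic probes and negative controls. Binding intensity is the highest Masliner-normalised natural-log median intensity across replicate spots of either orientation of each probe.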

In order of rising “gcPBM binding intensity (ln)” value:
1. AATAGAAATTATATAAACATAAATGAATAAATAAAT [CACACA_negctrl_site1817]  9.54 ± 0.16
2. AAATTAAATGATAGAGCATGCGCTAAAAATGAGAAA [TGCATGCA_site937]  9.66 ± 0.19
3. TAATATTTCGTTAAGTTTTAAAGAAAAAAAAAAAAA [CACACA_negctrl_site1253]  9.71 ± 0.43
4. AACAATTAGAATAACGCATGCATTTATAATATAGAA [TGCATGCA_site595]  9.72 ± 0.28
5. AAATTAAAAATAATTACACACATAGAAAAGTTATAT [CACACA_site7137]  9.79 ± 0.13
6. AGTATTATTTACTGCGCATGCTATTTATATATATTA [TGCATGCA_site876]  9.8 ± 0.042
7. ACACAAAAATGAAAAATGAAAAGGGTAATATATATA [CACACA_negctrl_site1490]  9.85 ± 0.16
8. TTACACAAGGATAAAAACATATGTATGATTATATAT [CACACA_negctrl_site654]  9.85 ± 0.23
9. ACCCAAGAGAAAAGAGAAAGAAATATGTGTATATTG [GTGCAC_negctrl_site214]  9.92 ± 0.042
10. TTTTTATTTTTTTATGCATGTGATGAAACGTGCCTA [TGCATGCA_site141]  9.93
11. TCAAAAAAAATTTTAGTGCATATTTTAGTCAAAACA  9.98 ± 0.18
12. ACACATATAATAGTTACATGCAAAAATACTTTTATT [TGCATGCA_site785]  9.99 ± 0.085
13. ATATATATATATATAACATGCAAAGTTCAAAAAAAA [TGCATGCA_site943]  10 ± 0.13
14. AAAAAAAACAGACACACACACACATATACATACATA [CACACA_site2665]  10.01 ± 0.014
15. ACCATATATTAAAAAGTGCATTAAATATATAAATAT [GTGCAC_site9443]  10 ± 0.11
16. TAATAAATCAAATGCACACACACAAAAAAAAAAAAA [CACACA_site161]  10 ± 0.49
17. TGTGTATATATAAATACACACCAAATGTTAATATAT [CACACA_site8501]  10.025 ± 0.007
18. AGAATATATAAGTATACACACATATATATATATATA [CACACA_site201]  10.1 ± 0.36
19. TTTTTTTTATTATAAATATATATATTATAAAACGAA [XGTACX_negctrl_site189]  10.1 ± 0.38
20. ATTTTATTTAAATACACACACATATATATATTATAT [CACACA_site4607]  10.1 ± 0.2
21. TTTTCAGAAAGACATGCATACAAAAATAAAAAAGAT [TGCATGCA_site814]  10.2 ± 0.12
22. AAAAAAAAAAAAAAAGCACACATCATATTTTAATTC [CACACA_site9109]  10.16 ± 0.092
23. CTACATATGTATAATATGCACACGTCATTTTCCCCT [CACACA_site2107]  10.2 ± 0.099
24. ACTTTTTGAATGTTTGCACACAAATCTCATAATTTT [CACACA_site358]  10.2 ± 0.16
25. TTATAAATATTCACTGTGCACTGATGGAATATAAAT [GTGCAC_site9739]  10.3 ± 0.33
26. CACAGACACCCATACACACACATACCCATATATATA [CACACA_site5023]  10.4 ± 0.26
27. ATACTGTATAGTCGCACACAAAAATATAAAATATTT [CACACA_site6004]  10.4 ± 0.37
28. ATAATTAACAAATACACACACACACCCAGACAAAAA [CACACA_site4445]  10.4 ± 0.52
29. CATACCTATAGACACACACACACACGCACGCACAAA [CACACA_site6374]  10.4 ± 0.34
30. ACATAGATCATAGGTTGTACGAAGGTATCCTTTATT [XGTACX_site694]  10.8 ± 0.45
31. TTATAGTAATAATAATGTACATTTATACACATATAT [XGTACX_site1965]  10.9 ± 0.47
32. AATTATCAGGAATGATGTACTGAAATAAAAAAAAAA [XGTACX_site3280]  11 ± 0.71
33. TTTTTATAACATAAAAGTACATATTTTTAATTTAAT [XGTACX_site4394]  11.1 ± 0.81
34. TTTTTAATCATAATATGTACATATAAAAATGGTTTG [XGTACX_site3996]  11.1 ± 0.67
35. TCATATATATATATATGTACATATTTATGTATGTAT [XGTACX_site6291]  11.1 ± 0.66
36. AAAATTTGAAAAAGGGGTACTTAATAAAAGTTTCAT [XGTACX_site932]  11.3 ± 0.89
37. AAAATATTAAATATGTGTACATATAATAGTTCAATG [XGTACX_site5957]  11.3 ± 0.91
38. CATTCTACAATAAAAAGTACATATATATATTATATA [XGTACX_site921]  11.4 ± 0.93
39. TTTTGCAAATATTACTGTACACAATCTCATATAATT [XGTACX_site2584]  11.4 ± 0.76
40. AAACAAATAAAAATATGTACACATTTTTTCATTATG [XGTACX_site5449]  11.4 ± 0.68
41. AATATGTCTTAAAAAAGTACATAAATTTTAACTTCA [XGTACX_site6670]  11.4 ± 1
42. ATATCGAAAATTTGGTGTACATTTTTATTTGTTCAA [XGTACX_site3094]  11.5 ± 0.93
43. ATTTAAATAATATGTACACACATTTAAAAAGTTATA [CACACA_site7347]  11.6 ± 0.94
44. TTAAAAGAAAATAGGTGTACACATAATATATACATA [XGTACX_site7697]  11.8 ± 1

— the supplement of paper PMC11417369
